This is an account of results in article PMC7819943, “Rice protein-binding microarrays: a tool to detect cis-acting elements near promoter regions in rice”.

Some of the results follow.

This assay addresses T1, OsWOX13 (Oryza sativa, UniProt Q5QMM3 1-267).
T1 sequence: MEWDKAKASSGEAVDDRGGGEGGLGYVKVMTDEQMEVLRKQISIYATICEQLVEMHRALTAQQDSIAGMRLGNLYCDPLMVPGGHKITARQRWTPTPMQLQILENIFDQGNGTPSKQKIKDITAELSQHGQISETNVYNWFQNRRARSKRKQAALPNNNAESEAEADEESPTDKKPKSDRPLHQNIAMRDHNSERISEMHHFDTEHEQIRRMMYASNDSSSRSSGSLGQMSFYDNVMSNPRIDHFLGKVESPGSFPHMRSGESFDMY
Description: protein-binding microarray (RPBM); PBS, 2% BSA, 51.3 ng/ul salmon testes DNA, 50 uM zinc acetate, 200 nM TF, 25 C, 1 h; high values mean tight binding. To be noted: protein: recombinant; tags: N-terminal polyhistidine and DsRed monomer fusion (pET32a); label: CyDye5-dUTP incorporated in the synthesized complementary strand; 3' TTTTT single-stranded linker to array surface; dsDNA, one strand shown. The gist of the method: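 For the binding signal, per-feature fluorescence intensity was read in arbitrary units on an Axon 4000B scanner. Before scanning, a 2% BSA-blocked custom Agilent array made double-stranded with Cy5-dUTP was washed after 1 h at 25 °C with 200 nM protein and 50 µM zinc acetate. The proteins were Ni–NTA-purified transcription factors with N-terminal polyhistidine and DsRed fusions, expressed in E. coli BL21-CodonPlus.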
In the case of “TGTTAACTGTCGATGATGATGAGTTCTGGGAAGGAGTTTTCGGAGTCACCTAGTGCAG”, the binding signal is 15400 fluorescence intensity (a.u.).
In the case of “ATAGTTAAATTGCCCCTCACAACACCACCTGTCGCTGATTCGGAGTCACCTAGTGCAG”, the binding signal is 6860 fluorescence intensity (a.u.).
For “GGCTAATTAAGGAGATGCTAAATATAGGTTAAATCAAGGACGGAGTCACCTAGTGCAG”, the binding signal is 25100 fluorescence intensity (a.u.).
The value for “TTCATAACCAATCAACCATAATGTTATTCGGATCCCTAGACGGAGTCACCTAGTGCAG” was 16800 fluorescence intensity (a.u.); that for “TATAATTAAGATGACACTAACCATGGTTAACTAACCCAACCGGAGTCACCTAGTGCAG” was 20900 fluorescence intensity (a.u.).
The value for “GTAGATAATTAAATCGGATTAGCATTAGATAATCAAGCAACGGAGTCACCTAGTGCAG” was 37000 fluorescence intensity (a.u.); that for “CTAAAAGTAATTAAGACATATCATAAAAGTAATTTGTGATCGGAGTCACCTAGTGCAG” was 9010 fluorescence intensity (a.u.); that for “GTTAGTGATTGAACCATAGACTTTACAACTTCCTAAGATCCGGAGTCACCTAGTGCAG” was 30700 fluorescence intensity (a.u.).
For the sequence “TTCATAATTAGCACATGTTTACTGTGGTATCACATGGACTCGGAGTCACCTAGTGCAG”, the binding signal was 25200 fluorescence intensity (a.u.).
For “CCTTAATTTATCTTAGCTACTAGCGATACTTTAATCCCTACGGAGTCACCTAGTGCAG”, the binding signal is 40500 fluorescence intensity (a.u.).
As for “ATCTACACGACCTTTCTGATTGAGGAGACAAAAGTTTTCACGGAGTCACCTAGTGCAG”, the binding signal is 7810 fluorescence intensity (a.u.).
For the sequence “GAAAAGTCAATAATCTAGATTGACCTCGTCGTCTTGGGCCCGGAGTCACCTAGTGCAG”, the binding signal was 15300 fluorescence intensity (a.u.).
Turning to “TCGTAATATTATGATGCATTGACATCAAGTAATAGGTTAGCGGAGTCACCTAGTGCAG”, the binding signal was 3750 fluorescence intensity (a.u.).
The value for “CCCAATCACTCCCGCACATCACTGACACGTGGGCCCCACGCGGAGTCACCTAGTGCAG” was 7230 fluorescence intensity (a.u.); that for “TTTATTGACAAAATTTGCTACAGAAAATCCAGATTTTGTGCGGAGTCACCTAGTGCAG” was 24800 fluorescence intensity (a.u.); that for “TTTTGTAATTACCACAACACCCAGAAGTCTAAACAGATAGCGGAGTCACCTAGTGCAG” was 13400 fluorescence intensity (a.u.).
The value for “CCACTGCCTCACCTCCTCTTTCCCCTCTTCCTGATCCAAACGGAGTCACCTAGTGCAG” was 3210 fluorescence intensity (a.u.); that for “ACCTTAATTGGAAGATTCCAATCGAATGATCAAACTCGTTCGGAGTCACCTAGTGCAG” was 41700 fluorescence intensity (a.u.).
For the sequence “GAGTAATTGACTAGAGTACGAGGAGTCAAGAGAATATCACCGGAGTCACCTAGTGCAG”, the binding signal is 26900 fluorescence intensity (a.u.).
For the sequence “ATAACAAATTGCAGCTTTAACATTTGCGTATCGTAGTACTCGGAGTCACCTAGTGCAG”, the binding signal is 10300 fluorescence intensity (a.u.).
Take “GCGATCCAGATTACAATTACTAACTTGTGTCCTAATTAATCGGAGTCACCTAGTGCAG”: the binding signal was 3310 fluorescence intensity (a.u.).
Take “TTTGATGGGAATTTGTTTCAGATATGCTTACGTGCACATACGGAGTCACCTAGTGCAG”: the binding signal is 13800 fluorescence intensity (a.u.).
As for “AAGGAGAATTTTCTTGATTGAAATTATACATCATATTCATCGGAGTCACCTAGTGCAG”, the binding signal is 29500 fluorescence intensity (a.u.).
As to “TAAATTGCCAACCATCATTTTCCAATTGGCCAACTGATGGCGGAGTCACCTAGTGCAG”, the binding signal is 5780 fluorescence intensity (a.u.).
The value for “AAATTTTAAATTTTAGTAAAATTTGTTCGGTCTTTCTCTCCGGAGTCACCTAGTGCAG” was 5920 fluorescence intensity (a.u.); that for “GCATGTGATTACAATTTCGTGTTCATATCAATAATAGTAGCGGAGTCACCTAGTGCAG” was 25400 fluorescence intensity (a.u.).
In the case of “CCTTCATTCATTTCCTAATCCCAATCCCACCCTCCATTTCCGGAGTCACCTAGTGCAG”, the binding signal is 3570 fluorescence intensity (a.u.).
The value for “ATTAAACTCCATTCTAAAACTAGAATATAATTAGACAGAGCGGAGTCACCTAGTGCAG” was 3290 fluorescence intensity (a.u.); that for “CGGTTAGACAGAGCCTAATTAAGGAGGTCACTTGTTATACCGGAGTCACCTAGTGCAG” was 12700 fluorescence intensity (a.u.); that for “TTGAAATTAAATTAATTAGCACAAATTATGAAATTAACTACGGAGTCACCTAGTGCAG” was 45800 fluorescence intensity (a.u.).
The value for “TTAAATTAAAACTTTTAGCTGAACCAATGGCTACTGAGAACGGAGTCACCTAGTGCAG” was 3170 fluorescence intensity (a.u.); that for “ATTTTGTTGATTGCTGCAATCTCGTGCGGCGTAACAAGGTCGGAGTCACCTAGTGCAG” was 37300 fluorescence intensity (a.u.); that for “GGCACTAAATTAGTTTCATTAAATTTAACACTGAATATATCGGAGTCACCTAGTGCAG” was 24800 fluorescence intensity (a.u.).
“TCAAATTTGTGCTGATTTATATGGAAAATTCTGTCAAGTGCGGAGTCACCTAGTGCAG”: the binding signal is 37600 fluorescence intensity (a.u.).
The value for “TGCTGATTTTCTGATGGACTCACGAAGTCGCACACGTACGCGGAGTCACCTAGTGCAG” was 32600 fluorescence intensity (a.u.); that for “ATGGCATGATTAATAATGGCTGTAGTGATAAACCGCATGGCGGAGTCACCTAGTGCAG” was 11600 fluorescence intensity (a.u.); that for “TGGCAGAATTTTAAACGATTGATAAATCTTCTTCTAAGCTCGGAGTCACCTAGTGCAG” was 4910 fluorescence intensity (a.u.).
The value for “TTCTTGCCACGATAATTGAATGGAACTTCCACATTCAGATCGGAGTCACCTAGTGCAG” was 20000 fluorescence intensity (a.u.).
The value for “ATAATAAATATATTTACATTTAGACCCTCGATGTGTCATCCGGAGTCACCTAGTGCAG” was 3230 fluorescence intensity (a.u.); that for “AACCAAACCAATCACGAGCGGATCAACACAGATCAAGCATCGGAGTCACCTAGTGCAG” was 12500 fluorescence intensity (a.u.); that for “AGTTCTTGATGATCAAATTTTGCTGGGTTGTTTAACCACTCGGAGTCACCTAGTGCAG” was 7260 fluorescence intensity (a.u.).
For “AATTACGCCATGATTTGATAATGTGATGCTATAGTAAACACGGAGTCACCTAGTGCAG”, the binding signal is 7330 fluorescence intensity (a.u.).
